Source: the RNAGym collection of RNA variant scans (doi:10.1073/pnas.2313332121)
This sample is rich in variants without activity.

B1: TPR 5TU (parent)
chain: GGAUCUUCUCGAUCUAACAAAAAAGACAAAUCUGCCACAAAGCUUGAGAGCAUCUUCGGAUGCAGAGGCGGCAGCCUUCGGUGGCGCGAUAGCGCCAACGUUCUCAACUAUGACACGCAAAACGCGUGCUCCGUUGAAUGGAGUUUAUCAUG

Variants of: B1
Experiment: polymerase ribozyme fitness, log enrichment relative to wild type (log ratio); higher = more active; in vitro selection for triplet polymerase activity
Summary of the method: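 To select mutant libraries of each subunit of a heterodimeric triplet polymerase ribozyme, built by PCR and transcribed, each was annealed with a biotinylated primer, partner subunit and triplets, then incubated frozen at −7 °C. Extended constructs were gel-excised, captured on streptavidin beads and amplified by RT-PCR, in one round carried out in triplicate. Illumina sequencing of input and output libraries kept genotypes with ≥10 input reads and ≥1 read per output. Fitness is the base-2 logarithm of genotype enrichment relative to wild-type enrichment, from inverse-variance-weighted replicate averages.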

Point of comparison: GGAUCUUCUGGAUCUAACAAAAAAGACAAAUCUGCCACAAUGCUUGAGAGCAUCUUCGGAUGCAGAGGCGGCAGCCUUCGGUGGCGCGAUAGCGCCAACGUUCUCAACUAUGACACGCAAAACGCGUGCUCCGUUGAAUGGAGUUUAUCAUG [C10G A41U], “polymerase ribozyme fitness (log ratio)” value -4.05. Against it:
- GGAUCUUCUGGAUCUAACAAAAAAGACAAGUCUGCCAAAAAGCUUGAGAGCAUCUUCGGAUGCAGAGGCGGCAGCCUUCGGUGGCGCGAUAGCUCCAACGUUCUCAACUAUGACACGCAAAACGGGUGCUCCGUUGAAUGGAGCUUAUCAUG [C10G A30G C38A G94U C125G U144C] — lower, ≤ -4.2
- GGAUCUUCUGGAUCUAACAGUAAAGACAAAUCUGUCACAAAGCUUGAGAGCAUCUUCGGAUGCAGAGGCGGCAGCCUUCGGUGGCGCGAUAACGCCAACGUUCUCAACUAUGAUACGCAAAACGCGUGCUCCGUUGAAUGGAGUUAAUCAUG [C10G A20G A21U C35U G92A C114U U146A] — lower, ≤ -4.2
- GGAUCUUCUGGAUCUAACAAUAAAGACAAAUCUGCCACAAAGCUUGAGAGCGUCUUCGGAUGCAGAGGCGGCAGGCUUCGGUGGCGUGAUAGAGCCAACGUUCUCAACUAUGACACGCAAAACGCGUGCGCCGUUGAAUGGAGUUUAUCAUG [C10G A21U A52G C75G C87U C93A U130G] — lower, ≤ -4.2
- GGAUCUUCUGGAUCUAACAAAACAGACAAAUCUACCGCAAAGCUUGAGAGCAUCAUCGGAUGCAGAGGCGGCAGCCUUCGGGUGCGCGAUAGCACCAACGUUCUCAACUAUGACACGGAAAACGCGUGCUCCGUUGAAUGGAGCUUAUGAUG [C10G A23C G34A A37G U55A U82G G83U G94A C118G U144C C149G] — lower, ≤ -4.2
- GGAUCUUCUGGAUCUAACAAAAAAGACAAAUCUGCCUCAAAGCUUGAGAGCAUCAUCGGAUGCAGAGGCGGCAGCCUUCGGUGGCGCGAUAGCAGCAACGUUCUCAACUAUGACACGCAAAACGCGUGCUCCGUUGAAUCGAGUUUAUCAUG [C10G A37U U55A G94A C95G G140C] — lower, ≤ -4.2
- GGAUCUUCUGGAUCUAACAAAAAAGACAUAUCUGCCACAAAGUUUGAGAGCCUCUUCGGAUGCAGCGGCGGCAGCCUUCGGUGGCGCGAUAGCGCUAAGGUUCUCAACUAUGACACGCAAAACGCGUGCUCCGUUGAAUGGAGUUUAUCAUG [C10G A29U C43U A52C A66C C96U C99G] — lower, ≤ -4.2
- GGAUCUUCUGGAUCUAACAAUAAAGACUUAUCUGCGACAAAGCUUGAGAGCAUCUUCGGAUGCAGAGGCGGCAGCCUUCGGUGGCGCGAUAGCGCCAACGUUCUCAACUAUGACACGCAAAACGCGUGCUCCGUUGAAUGGAAUUUAUCAUG [C10G A21U A28U A29U C36G G143A] — lower, ≤ -4.2
- GGAUCUUCUGGAUCUAACAAAAAAGACAAAUCUGCCCCAAAGCUUGAGAACAUCUUCGGAUGCAGAGGCGGCAGCCUUCGGUGGCGCGAUAGCGUCAAAGUUCUCAACUAUGACACGCAAAACGCGUGCUCCGUUGAAUGGACUUUAUCAUG [C10G A37C G50A C95U C99A G143C] — lower, ≤ -4.2
- GGAUCUUCUGGAUCUAACAAAAAAGACAAAUCUGCCACACAGCUUGAGAGCAUCUUCGGAUGCAGAGGCGGCGGCCUUCGGUCACGCGAUAGCGCCAACGUUCUCAACUAUGACACGCAAAACGCGUGCUCCGUUGAAUGGAGAUCAUCAUG [C10G A40C A73G G83C G84A U144A U146C] — lower, ≤ -4.2
- GGAUCUUCUGGAUCUAACAAAAAUGACAAAUCUGCCACAAAGCUUGAGAGCCUCUUCGGAUGCAGAGGCGGCAGCCUUCGGUGGCGCGAUAUCGCCAACGUUGUCCACUAUGACACGCAAAACGCGUGCUCCGUUGAAUGGAGUUUAUCAUG [C10G A24U A52C G92U C103G A106C] — lower, ≤ -4.2
- GGAUCUUCUGGAUCUAACAAAAAAGACAAAUCUGCCUCAAAACUUGAGAGCAUCUUCGGAUGCAGAGGCGGCAGCCUUCGGUGGCGCCAUAGCGCCAACGUUCUCAACUAUGACACGCAAAACGCGUGCUCCGUUGAAUGGAGUUUAUCAUG [C10G A37U G42A G88C] — lower, ≤ -4.2
- GGAUCUUCUGGAUCUAACAAAUAAGACAAAUCUGCCACAAAGCUUGAUACCAUCUUCGGAUGCAGAGGCGGCAGCCUUCGGUGGCGCUAUAGCGCCAACGUUCUCAACUAUGACACGCAAAACGCGUGCUCCGUUGAAUGGAGUUUAUCAUG [C10G A22U G48U G50C G88U] — lower, ≤ -4.2
- GGAUCUUCUGGAUCUAACAAAAAAGCCAAAUCUGCCACAAAGCUUGAGAGCAUCUUCGGAUGCAGAGGCGGCAGCAUUCGGUAGCGCGAUAGCGCCAACGUUCUCAACUAUGACACGCAAAACGCGUGCUCCGUUGAAUGGAGUUUAUCAUG [C10G A26C C76A G83A] — lower, ≤ -4.2
- GGAUCUUCUGGAUCUAACAAAAAUGACAAAUCUGCCACAAAGCUGGAGACGAUCUUCGGAUGCAGAGGCGGCAGCCUUCGGUGGCGCGAUAGCGCCAACGUUCUCCACUAUGACACGCAAAACACGGGCUCCGUUGAAUGGAGUUUAUCAUG [C10G A24U U45G G50C C51G A106C G124A U127G] — lower, ≤ -4.2
- GGAUCUUCUGGAUCUAACAAAAAAGACACAUCUGCCACAAAGCUUGAGAGCAUAGUCGGAUGCAGAGGCGGCAGCCUUCGGUGGCGCAAUAUCGCCAACGUUCUCAACUAUGACACGCAAAACUCGUGCUCCGUUGAAUGGAGUUUAUCAUG [C10G A29C C54A U55G G88A G92U G124U] — lower, ≤ -4.2
- GGAUCUUCUGGAUCUAACAAAAAAGACAAAUCUGCCUCAAAGCUUGAGAGCAUCUUCACAUGCAGAGGCGGCAGCCUUCGGUGGCGCGAUAGCGCCAACGUUCUCAACUAUGACACGCAAAACGCGUGCUCCGUUGAAUGGAGUUUAUCGUG [C10G A37U G58A G59C A150G] — lower, ≤ -4.2
- GGAUCUUCUGGAUCUAACAAAAAAGACAAAUCUGCCACAAAGCUUGAGUGCAUCUUCGGAUCCAGCUGCGGCAGCCUUCGGUGGCGCGAUAGCGCAAAGGUUCUCAACUAUGACACGCAAAACGCGUGCUCCGCUGAAUGGAGUCUCUCAGG [C10G A49U G62C A66C G67U C96A C99G U134C U145C A147C U151G] — lower, ≤ -4.2
- GGAUCUUCUGGAUCUAACAAAAAAGACAAAUCUGCCACAACGCUUGAGAGCAUCUUCGGAUGCAGAGGCGUCAGCCUUCCGUGGCGCGAUAGCGCCAACGUUCUCAACUAUGACACGCAAAACGCGUGCUCCGUUGAAUGGAGUUUAUCAUG [C10G A41C G71U G80C] — lower, ≤ -4.2
